{"source": "PubChem BioAssay AID624330", "about": "(Southern Research Specialized Biocontainment Screening …, 2012)", "note": "Out of some 340,000 compounds screened, about 2,100 (0.62%) were called active. The inconclusive results got no clear call from the source; some entries with a clear call stand among them for comparison.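 How the source made its calls: active means first-screen hits whose inhibition reached a set limit at any dose in the follow-up dose series; inconclusive means inhibition above the set first-screen limit but never retested; inactive means the rest.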", "data": [{"molecular_target": "Rac GTPase-activating protein 1 (Homo sapiens) (UniProt Q9H0H5)", "sequence (Q9H0H5 whole entry, looked up)": "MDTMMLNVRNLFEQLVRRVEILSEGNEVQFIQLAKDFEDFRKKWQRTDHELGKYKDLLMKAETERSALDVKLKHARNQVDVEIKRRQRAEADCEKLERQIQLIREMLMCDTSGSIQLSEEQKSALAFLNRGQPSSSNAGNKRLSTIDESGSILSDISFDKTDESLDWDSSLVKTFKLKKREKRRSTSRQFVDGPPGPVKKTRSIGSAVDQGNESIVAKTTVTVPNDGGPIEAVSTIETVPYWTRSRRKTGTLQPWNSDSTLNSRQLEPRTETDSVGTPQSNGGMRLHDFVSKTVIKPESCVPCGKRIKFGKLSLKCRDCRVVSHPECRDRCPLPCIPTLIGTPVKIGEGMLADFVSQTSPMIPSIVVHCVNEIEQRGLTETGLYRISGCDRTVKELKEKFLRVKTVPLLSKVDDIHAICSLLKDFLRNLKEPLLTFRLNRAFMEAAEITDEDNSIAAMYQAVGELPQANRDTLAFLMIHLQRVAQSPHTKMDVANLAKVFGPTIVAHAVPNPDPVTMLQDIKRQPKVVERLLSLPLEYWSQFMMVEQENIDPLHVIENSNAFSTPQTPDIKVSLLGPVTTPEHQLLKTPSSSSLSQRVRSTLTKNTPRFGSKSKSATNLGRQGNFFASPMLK", "assay": "blockers of MgcRacGAP-driven Rac1 GTP hydrolysis – biochemical, ADP Hunter fluorescence, primary and confirmatory, confirmation (AID 624330);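 further: fluorescence reports GDP produced by GAP-driven GTP hydrolysis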", "settings": "MgcRacGAP-stimulated Rac1 GTP hydrolysis, at 30 µM, active compounds read high, GST-tagged Rac1 F28L mutant substrate", "values": [{"smiles": "CC(C)(C)C(=O)Nc1c2c(nn1-c1ccc(F)cc1)CSC2", "inhibition": "inactive: 11%"}, {"smiles": "CCN(CC)CCNC(=O)CCCCn1c(=S)[nH]c2c([nH]c3ccc(OC)cc32)c1=O", "inhibition": "inconclusive: 88%"}, {"smiles": "N#C/C(=C/c1cc(Cl)c(O)c(Cl)c1)C(=O)N1CCCCC1", "inhibition": "inactive: 10.9%"}, {"smiles": "Cc1cc(N)ccc1N1CCCC1", "inhibition": "inconclusive: 36.7%"}, {"smiles": "O=C1CC(c2ccccc2)CC(O)=C1C=Nc1ccccc1O", "note": "(centres undefined)", "inhibition": "inactive: 4.93%"}, {"smiles": "O=C(CCC(=O)N1CCN(c2ccc(O)cc2)CC1)c1cccs1", "inhibition": "inconclusive: 64.2%"}, {"smiles": "COC(=O)[C@@H](N)Cc1ccc(O)c(O)c1", "inhibition": "inactive: -7.99%"}, {"smiles": "CNC(=S)Nc1cc2oc3ccccc3c2cc1OC", "inhibition": "inactive: 13.3%"}, {"smiles": "O=C(c1ccnc(Cl)c1)N1CCCC(Nc2ccc(F)cc2)C1", "note": "(centres undefined)", "inhibition": "inactive: 6.71%"}, {"smiles": "COc1cc2nc(=S)n3[nH]c(COc4ccccc4C)nc3c2cc1OC", "inhibition": "inconclusive: 90.5%"}, {"smiles": "N#Cc1c(Nc2ccccc2)sc(C(=O)c2ccccc2)c1N", "inhibition": "inactive: -10.7%"}, {"smiles": "CN(C)CCCNc1c2ccccc2nc2ccccc12", "inhibition": "inconclusive: 34.6%"}, {"smiles": "COCC(=O)Nc1ccc(F)cc1", "inhibition": "inactive: -1.69%"}, {"smiles": "CN1CCC/C1=C/C=C1\\SC(=S)NC1=O", "inhibition": "inconclusive: 83.5%"}, {"smiles": "CC(C)C[C@@]12C(=O)N(c3cccc(Cl)c3)C(=O)N1[C@H](c1ccc(Br)cc1)[C@@H]1C(=O)N(C(C)(C)C)C(=O)[C@@H]12", "inhibition": "inactive: -10.5%"}, {"smiles": "O=C(O)c1ccccc1SC1CC(=O)N(c2ccc3c(c2)OCO3)C1=O", "note": "(centres undefined)", "inhibition": "inactive: -5.78%"}, {"smiles": "NNC(=O)CCc1nc2ccc(O)cc2[nH]1", "inhibition": "inconclusive: 51.6%"}, {"smiles": "C#CCOCCOCCOCCNc1nc(N2CCN(C(=O)[C@H](CCCCN)n3cc([C@@H](N)C(C)CC)nn3)CC2)nc(N2CCN(C(=O)[C@H](Cc3cc4ccccc4[nH]3)n3cc([C@@H](N)CC(C)C)nn3)CC2)n1", "note": "(some centres undefined)", "inhibition": "inconclusive: 60.2%"}, {"smiles": "Cc1nn(CC(O)CN2c3ccccc3Sc3ccccc32)c(C)c1Br", "note": "(centres undefined)", "inhibition": "inactive: 7.34%"}, {"smiles": "COc1ccccc1C(=O)N1CCC(N2CCN(c3ccccc3OC)CC2)CC1", "inhibition": "inconclusive: 35%"}, {"smiles": "CNc1nc2c(c(=O)n(C)c(=O)n2C)n1Cc1ccccc1", "inhibition": "inactive: -6.26%"}, {"smiles": "C/C(=N\\NC(=O)c1nnn(-c2nonc2N)c1CN1CCCCCC1)c1ccc(Br)cc1", "inhibition": "inactive: -3.03%"}, {"smiles": "NC(=S)N=Nc1c(O)cc(O)c2[nH]c(=O)ccc12", "inhibition": "inconclusive: 32.8%"}, {"smiles": "Oc1ccc(N=Cc2c(O)ccc3ccccc23)cc1", "inhibition": "inconclusive: 71.9%"}, {"smiles": "Cc1cc(/C=N/NC(=O)c2ccoc2C)cc(C)c1O", "inhibition": "inconclusive: 32.2%"}, {"smiles": "CCN(CC)C(=O)CN1CCN(Cc2ccc3c(c2)OCO3)CC1", "inhibition": "inconclusive: 35%"}, {"smiles": "O=C(NC(=S)Nc1ccc(O)cc1)c1cncc(Br)c1", "inhibition": "inconclusive: 75.3%"}, {"smiles": "COc1ccccc1OCC(=O)N1CCCC(Nc2ccc(C)c(C)c2)C1", "note": "(centres undefined)", "inhibition": "inactive: 14.2%"}, {"smiles": "CC(=O)c1ccc2c(c1)C1C=CCC1C(c1ccncc1)N2", "note": "(centres undefined)", "inhibition": "inactive: 13%"}, {"smiles": "Cc1cccc(C)c1OCCOCCN1CCN(C)CC1", "inhibition": "inconclusive: 34%"}, {"smiles": "COc1ccc(C(=O)/C=C/c2cc(OC)c(O)c(OC)c2)c(F)c1", "inhibition": "inconclusive: 36.9%"}, {"smiles": "O=C(O)CCN1C(=O)/C(=C\\c2ccc(-c3nc4ccccc4s3)o2)SC1=S", "inhibition": "inconclusive: 76.2%"}, {"smiles": "O=C(Nc1ccccc1C(=O)O)c1cccc(C(=O)Nc2ccccc2C(=O)O)c1", "inhibition": "inconclusive: 32.6%"}, {"smiles": "COc1ccc(CCN2C(=O)CC(Nc3ccc(N4CCOCC4)cc3)C2=O)cc1OC", "note": "(centres undefined)", "inhibition": "inconclusive: 37.4%"}, {"smiles": "C/C(=N\\NC(=O)Cn1cnc2ccccc21)c1cccs1", "inhibition": "inactive: 4.15%"}, {"smiles": "COc1cc(/C=C(\\C#N)C(=O)c2ccc(O)c(O)c2)cc(I)c1O", "inhibition": "inconclusive: 53.4%"}, {"smiles": "COc1ccc(Br)cc1C(=O)Nc1ccc(O)cc1", "inhibition": "inconclusive: 78.5%"}, {"smiles": "COc1ccc(/C=N/NC(=O)NC23CC4CC(CC(C4)C2)C3)c(OC)c1", "inhibition": "inactive: 0.89%"}, {"smiles": "Cc1cccc(CN2CCCC(C(=O)N3CCCCC3)C2)c1", "note": "(centres undefined)", "inhibition": "inconclusive: 33.8%"}, {"smiles": "O=C(O)CCNc1cc(N2CCN(C(=O)c3ccco3)CC2)c2noc3c2c1C(=O)c1ccccc1-3", "inhibition": "inconclusive: 52.9%"}, {"smiles": "Nc1cc(Cl)ccc1N1CCCCCC1", "inhibition": "inactive: -8.8%"}, {"smiles": "O=C(c1cccc2ccccc12)N1CCC(N2CCN(c3ccccc3)CC2)CC1", "inhibition": "inconclusive: 34.5%"}, {"smiles": "CCn1c(N2CCC(Cc3ccccc3)CC2)nc2c1c(=O)[nH]c(=O)n2C", "inhibition": "inconclusive: 35%"}, {"smiles": "O=C1CCCCc2cc(O)c(O)cc21", "inhibition": "inconclusive: 32.6%"}, {"smiles": "COc1ccc(N2CCN(C(=O)c3cc(=O)[nH]c4ccccc34)CC2)cc1", "inhibition": "inactive: 18.3%"}, {"smiles": "CCOCCn1c(N2CCN(c3ccc(OC)cc3)CC2)nc2c1c(=O)n(C)c(=O)n2C", "inhibition": "inconclusive: 34.1%"}, {"smiles": "COc1cccc(/C=N/n2c(-c3cc(C)[nH]n3)n[nH]c2=S)c1O", "inhibition": "inconclusive: 36.7%"}, {"smiles": "CC(=O)N1CCN(c2ccc(Nc3nc(C)nc4c3oc3ccccc34)cc2)CC1", "inhibition": "inconclusive: 33.6%"}, {"smiles": "NC(=O)C1CCN(Cc2ccc(OCc3ccccc3)cc2)CC1", "inhibition": "inactive: 21.3%"}, {"smiles": "Cc1ccccc1C(=O)Nc1ccc(N2CCCCCC2)cc1", "inhibition": "inconclusive: 33.1%"}, {"smiles": "Nc1ccc2nc(-c3ccc(N)c(Cl)c3)[nH]c2c1", "inhibition": "inconclusive: 86.9%"}, {"smiles": "COc1ccc(NC2CCCN(C(=O)Cn3ccc(C)n3)C2)cc1OC", "note": "(centres undefined)", "inhibition": "inconclusive: 35.4%"}, {"smiles": "CS(=O)(=O)N1CCN(c2ccccc2NC(=O)c2ccc(Cl)cc2)CC1", "inhibition": "inactive: 13.8%"}, {"smiles": "Nc1ccc2c(c1)CCC2=O", "inhibition": "inactive: 1.82%"}, {"smiles": "Cc1ccc(C(C)C)c(OCCCn2ccnc2C)c1", "inhibition": "inconclusive: 35.1%"}, {"smiles": "O=c1[nH][nH]c2c(N=Cc3ccccc3O)ccc(F)c12", "inhibition": "inconclusive: 70.9%"}, {"smiles": "CCN(CC(=O)Nc1c(F)cccc1F)C(=O)/C=C/c1ccc2ccccc2n1", "inhibition": "inconclusive: 34.8%"}, {"smiles": "Cc1ccc(NC2CCCN(C(=O)CCc3cn[nH]c3)C2)cc1C", "note": "(centres undefined)", "inhibition": "inactive: 14.1%"}, {"smiles": "O=[N+]([O-])c1ccc2[nH]c(=S)sc2c1", "inhibition": "inconclusive: 31.9%"}]}]}
